In PubChem BioAssay AID463173 (ICCB-Longwood Screening Facility, Harvard Medical School, 2010):
Screen size: about 52,000 compounds; about 1,700 (3.3%) were called active. Rule as the data show it: active = survival mostly below about 52% (no sharp cut-off); inactive = mostly above about 56%. The list shows a part of the results.

What follows are compounds tested on Wild type (assay: S. aureus survival, RN4220 and DeltatarO strains – OD600, teichoic acid synthesis inhibitors, primary screen (AID 463173)). Details: S. aureus RN4220 wild type/DeltatarO growth, OD600, 18 h, active compounds read low, screened at 18.75 µg/mL (by protocol).

| SMILES | survival |
| --- | --- |
| Cc1cccc(C2NC(=O)c3c(sc4c3CCN(C)C4)N2)c1O (stereo unspecified) | inactive: 128% |
| CCOC(=O)c1ccc(NC2=CC(c3ccc(Br)cc3)N(c3ccc(C(=O)OCC)cc3)C2=O)cc1 (stereo unspecified) | inactive: 125% |
| CCOc1ccc(N2CC(c3nc4ccccc4n3CCCOc3ccc(OC)cc3)CC2=O)cc1 (stereo unspecified) | inactive: 66% |
| COCCNC(=O)CSc1nnc(-c2ccc(OC)c(OC)c2)c(-c2ccc(OC)c(OC)c2)n1 | inactive: 68% |
| O=S(=O)(c1ccccc1)c1nc(-c2cccc(Cl)c2)oc1NCc1ccccc1 | inactive: 97% |
| COc1ccc(Br)c2c1-c1nc(NC(=O)c3ccccc3SC)sc1C2 | inactive: 123% |
| Cc1c(C(=O)NCCN(C)C)oc2c1-c1nn(Cc3ccccc3Cl)cc1CC2 | inactive: 121% |
| CCN(CC)C(=O)Cn1c(C)c(C#N)c2ccccc21 | inactive: 103% |
| COc1ccccc1-c1c(C)nn2c(N3CCN(c4ccc(Cl)cc4)CC3)cc(C)nc12 | inactive: 77% |
| CCCCOc1ccc(S(=O)(=O)Nc2cccc(-c3ccc(N4CCOCC4)nn3)c2)cc1 | inactive: 51% |
| COc1ccc(N(CC(=O)N2CCN(c3cc(C)ccc3C)CC2)S(=O)(=O)c2c(C)noc2C)cc1 | inactive: 79% |
| CCOC(=O)c1ccc(Nc2nc(C)cc(C)n2)cc1 | inactive: 87% |
| CC(Sc1nc(-c2ccccc2)c(C#N)c(=O)[nH]1)C(=O)Nc1ccc(F)cc1 (stereo unspecified) | inactive: 91% |
| Cc1ccc(-n2ncc3c(NNC(=O)c4ccccc4C)ncnc32)cc1 | inactive: 88% |
| COc1ccc(-c2c(C)nn3c(N4CCC(C(=O)NCCC(C)C)CC4)cc(C)nc23)cc1OC | inactive: 84% |
| CC(C)c1ccc(C2c3c(-c4ccccc4O)n[nH]c3C(=O)N2CCc2ccccc2)cc1 (stereo unspecified) | inactive: 64% |
| CCc1ccc(-c2[nH]c3c(c2-c2c(-n4cccc4)n(C)c(=O)n(C)c2=O)c(=O)n(C)c(=O)n3C)cc1 | inactive: 105% |
| CCN(CC)CCn1c(=N)n(CC(O)COc2ccccc2C)c2ccccc21 (stereo unspecified) | inactive: 73% |
| Cc1ccc(Cn2c(=O)c3c(nc4n3CCN4c3cc(C)cc(C)c3)n(C)c2=O)cc1 | inactive: 62% |
| C=CCn1c(C(C)NC(=O)c2ccccc2Cl)n[nH]c1=S (stereo unspecified) | inactive: 98% |
| CC(C)CCn1c(SCc2ccc(F)cc2Cl)nc2ccsc2c1=O | inactive: 69% |
| CC1=C(C(=O)Nc2ccccc2)C(c2ccc(C(=O)O)cc2)n2nc(SCC(=O)c3ccc(C)cc3)nc2N1 (stereo unspecified) | inactive: 84% |

| SMILES | survival |
| --- | --- |
| COc1ccc(-c2nc(CCNC(=O)c3cc(OC)c(OC)c(OC)c3)cs2)cc1 | inactive: 136% |
| CCCN1CCN(CC2=C(C(=O)OCC)C(c3ccc(Cl)cc3)NC(=O)N2)CC1 (stereo unspecified) | inactive: 90% |
| COc1ccc(CNC(=O)Cc2c(C)c3c(cc(C)c4c(C)coc43)oc2=O)cc1 | inactive: 89% |
| COc1ccc(Cl)cc1NC(=O)CCCn1c(=O)c2cccn2c2cccnc21 | inactive: 88% |
| COC(=O)c1c(NC(=O)c2ccc(S(=O)(=O)N3CCCCC3C)cc2)sc2c1CCN(C(C)C)C2 (stereo unspecified) | inactive: 135% |
| CCOC(=O)N1CCc2c(sc(NCc3ccc(OC)c(Br)c3)c2C(=O)Nc2cc(OC)ccc2OC)C1 | inactive: 99% |
| CCOC(=O)c1ccccc1NC(=O)N(Cc1ccc(C)cc1)Cc1cccn1-c1nnc(N2CCCC2=O)s1 | inactive: 127% |
| c1ccc(CCCN2CCN(C3CCCC3)CC2)cc1 | inactive: 105% |
| CCC(C)n1c(=N)c(S(=O)(=O)c2ccc(C)cc2)cc2c(=O)n3cc(C)ccc3nc21 (stereo unspecified) | inactive: 85% |
| Cc1ccccc1-c1noc(CSc2nnc(Cc3ccccc3)n2-c2ccc(F)cc2)n1 | inactive: 83% |
| COc1ccc(-c2noc(CSc3nnc(-c4ccncc4)n3-c3ccccc3)n2)cc1 | inactive: 82% |
| COC(=O)C1CCN(S(C)(=O)=O)CC1 | inactive: 102% |
| Cc1ccc(CNC(=O)c2c(-c3ccccc3F)noc2C)o1 | inactive: 80% |
| Cc1cc(C(=O)O)on1 | inactive: 109% |
| COc1cccc(NC(=O)Cn2c(=O)n(CCCC(=O)NCc3ccc4c(c3)OCO4)c(=O)c3ccccc32)c1 | inactive: 111% |
| O=S(=O)(Cc1ccccc1)N1CCC(c2nc(-c3cccs3)no2)CC1 | inactive: 110% |
| Cc1cccc(C(=O)Nc2ccc(N3CCC(CCN4CCOCC4)CC3)c(C(=O)O)c2)c1 | inactive: 53% |
| O=C(Nc1ccc(S(=O)(=O)N2CCC(c3nc4ccccc4s3)CC2)cc1)c1ccccc1F | inactive: 87% |
| Cc1cc(C)c2[nH]c(=O)c(CN(C3CCCCC3)C(c3nnnn3Cc3ccco3)C(C)C)cc2c1 (stereo unspecified) | inactive: 107% |
| CCN(C(=O)NCc1noc2ccccc12)c1cc(C)ccc1C | inactive: 85% |
| CCOc1ccc(CNC(=O)CCn2cccn2)cc1OC | inactive: 75% |
| Cc1ccc2nc(/C(C#N)=C/c3ccc(-c4cccc(Cl)c4)o3)[nH]c2c1 | inactive: 14% |

| SMILES | survival |
| --- | --- |
| CCOC(=O)c1nc(Nc2cccc(C)c2)c2ccccc2n1 | inactive: 83% |
| CCOc1ccc(NC(=O)CN2C(=O)C(c3ccccc3)=NC23CCCCCC3)cc1 | inactive: 123% |
| Cc1cccc(Cn2c(C)c(C)c3cc(C(=O)NCc4ccc(C)o4)ccc32)c1 | inactive: 93% |
| Cc1cc(NC(=O)CN(C)S(=O)(=O)c2ccc3c(c2)CCC(=O)N3)ccc1Br | inactive: 80% |
| CCOc1ccc(CCNC(=O)c2cc3c(-c4cccc(OC)c4)nn(C)c3s2)cc1OCC | inactive: 72% |
| Cc1cccc(CS(=O)(=O)Cc2ccc(C(=O)NCc3ccc(Cl)cc3)o2)c1 | inactive: 134% |
| CCCCC12CN3CC(C)(CN(C1)C3c1c(C)[nH]c(=O)[nH]c1=O)C2=O (stereo unspecified) | inactive: 85% |
| CCN(CCCNC(=O)c1nn(-c2ccc(OC)cc2)c(=O)c2c1c1ccccc1n2C)c1cccc(C)c1 | inactive: 80% |
| COc1ccc(-c2cccc(NS(=O)(=O)c3cc(C)c(Cl)cc3C)c2)nn1 | inactive: 124% |
| O=C(Sc1cccc2cccnc12)N1CCOCC1 | inactive: 126% |
| CCC(C(=O)NCCc1ccc(Cl)cc1)n1nc(C)c2c(C)n(-c3ccccc3)nc2c1=O (stereo unspecified) | inactive: 82% |
| Cc1cccc(C(CC(=O)NCC2(c3ccccc3)CCCC2)c2ccccc2)c1O (stereo unspecified) | active: 2% |
| Cc1nc2nc(SCC(=O)NC(C)c3ccccc3)nn2c(C)c1Cc1c(F)cccc1Cl (stereo unspecified) | inactive: 79% |
| COc1cccc(CSc2nc3n(n2)C(c2ccccc2C)C(C(=O)Nc2ccccc2OC)=C(C)N3)c1 (stereo unspecified) | inactive: 66% |
| O=C(CSc1oc(-c2ccco2)nc1S(=O)(=O)c1ccc(Cl)cc1)c1ccccc1 | inactive: 150% |
| COC(=O)c1ccc(NC(=O)CC2C(=O)N(c3cccc(OC)c3)C(=O)N2Cc2cccc(OC)c2)cc1 (stereo unspecified) | inactive: 79% |
| CCOc1ccc(CN2C(=O)c3ccccc3Sc3ccc(C(=O)NCc4ccc(C)cc4)cc32)cc1 | inactive: 82% |
| Cc1ccc(CCNC(=O)CCSCc2ccc(Cl)cc2)cc1 | inactive: 72% |
| Cc1ccc(-c2nc3c4cnn(-c5cc(Cl)ccc5Cl)c4ncn3n2)cc1 | inactive: 92% |
| COCCCn1c(=N)c(C(=O)NC2CCCC2)cc2c(=O)n3ccccc3nc21 | inactive: 92% |
| O=C(NCc1ccccc1)c1ccccc1C(=O)c1ncc[nH]1 | inactive: 107% |
| CCC(=O)Nc1ccc2c(c1)N(C(C)=O)c1ccccc1CC2 | inactive: 96% |

| SMILES | survival |
| --- | --- |
| Cc1ccc(S(=O)(=O)c2nnn3c2nc(Nc2ccc(C(C)C)cc2)c2sccc23)cc1C | inactive: 54% |
| CCOc1ccc(-n2c(SCc3nc(-c4ccccc4C)no3)nnc2-c2ccccc2)cc1 | inactive: 84% |
| Cc1[nH]nc(CSSCc2n[nH]c(C)c2C(=O)NN)c1C(=O)NN | inactive: 97% |
| CC(C)Cc1nn2c(=O)cc(COC(=O)c3ccccc3NC(=O)c3ccccc3)nc2s1 | inactive: 127% |
| CC(=O)Nc1ccc(NC(=O)CN2C(=O)CN(C)C(=O)c3ccccc32)cc1 | inactive: 68% |
| O=C(c1cccs1)N1CCN(C/C=C/c2ccccc2)CC1 | inactive: 97% |
| CCCn1c(=O)c2sccc2n2c(CCCC(=O)NCCOC)nnc12 | inactive: 97% |
| CN(C)c1ccc(CNc2nc(-c3ccco3)nn2C(=O)c2cccc([N+](=O)[O-])c2)cc1 | inactive: 86% |
| CCc1ccc(-n2c(C)nc3cc(C(=O)NCCc4ccccc4)ccc32)cc1 | inactive: 94% |
| CN(C)c1ccc(CN(CC2CCCO2)C(=O)COc2ccc(Cl)cc2)cc1 (stereo unspecified) | inactive: 86% |
| CC(=O)N1CCCc2cc(S(=O)(=O)N3CCCC(C(=O)NCc4ccc(Cl)cc4)C3)ccc21 (stereo unspecified) | inactive: 88% |
| Cc1cc(O)c(C(c2cccc(Cl)c2)N2CCN(c3ccccc3)CC2)c(=O)n1Cc1ccco1 (stereo unspecified) | inactive: 73% |
| COc1ccccc1NC(=O)CSc1ncc2c(n1)-c1cc(Cl)ccc1N(C)S2(=O)=O | inactive: 73% |
| CC(C)CC(=O)Nc1ccc(C(=O)OCc2cc(=O)n3nc(C4CCCCC4)sc3n2)cc1 | inactive: 47% |
| Cc1nc(N2CCCC2)ncc1C(=O)Nc1ccccc1 | inactive: 125% |
| COc1cccc(CN2C(=O)c3ccccc3C2C(=O)NCCc2ccc(OC)c(OC)c2)c1 (stereo unspecified) | inactive: 68% |
| CCC1CN(C(=O)NCc2ccc(F)cc2)c2ccccc2O1 (stereo unspecified) | inactive: 81% |
| Cc1ccc(NC(=O)c2ccco2)c(OCc2cc(=O)n3cc(C)sc3n2)c1 | inactive: 74% |
| COc1ccc(-n2c(=O)c3c4c(sc3n(Cc3cc(=O)n5c(C)cccc5n3)c2=O)CCC4)c(OC)c1 | inactive: 84% |
| COc1ccc(C2CC(=O)N3CN(C4CCCCC4)CSC3=C2C#N)cc1 (stereo unspecified) | inactive: 138% |
